Some of the results follow. Antibody binding of pooled human sera (four to six donors per pool; dilution not stated) to peptides of the Trypanosoma cruzi antigen TSSA on microarrays. Quantile-normalised fluorescence in arbitrary units, mean of duplicate arrays; higher = more binding. No active / inactive call. The uninfected pools are read here as the healthy donors of the same country. The strongest signals lie near the top of the scale (about 60,000).

The test system of this experiment is pooled sera of uninfected people, Colombia. The experiment in a line: antibody binding signal (normalised fluorescence) (arbitrary fluorescence units); higher = stronger serum antibody binding to peptide. How it is done: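 Microarray of 15-residue peptides over residues 30-55 of Trypanosoma cruzi TSSAII, each with 1 to 10 substitutions at naturally variable positions, probed with one serum pool per country.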
As for KPAAGETPSPSGASS, the antibody binding signal came to 145.

For the sequence PPSGKDKKAATGETP, the antibody binding signal was 364.

TPPSGKENKTATGEA gave an antibody binding signal of 627. The same measure for STPPSGTENKAAAGE: 626; for TDKKPATGETPSQSG: 157. The value for GTEKKPAAGEAPSPS was 101.

As to EKKAAAGETPSQSGA, the antibody binding signal is 759.

The sequence GKENKAAAGGTPSQP came in with an antibody binding signal of 140.

As to SGKDKKAAAGEAPSQ, the antibody binding signal amounted to 228.

Take KPAAGGAPSPSGASS: the antibody binding signal came to 96.7.

In turn, KDNKPAAGEAPSPPG registered an antibody binding signal of 232. The same measure for SGTEKKTATGGTPSQ: 941; for SSTPPSGKEKKPAAG: 303. The same measure for PSGTEKKPATGETPS: 386. The value for PPSGKEKKTAAGGAP was 166; that for EKKTATGEAPSPSGA was 80.6; that for STPPSGTEKKTAAGG was 141. On to SGTDKKPATGETPSQ, for which the antibody binding signal stood at 383. The value for SGTEKKAAAGETPSQ was 754; that for GTENKTAAGEAPSPS was 261.

On to DKKPATGEAPSQSGA, for which the antibody binding signal came out at 298. The same measure for GTDNKPATGGAPSQP: 205. Regarding KENKAATGGAPSQSG, the antibody binding signal was found to be 99.6.

Regarding NKAATGETPSPPGAS, the antibody binding signal came out at 628.

As to KKPAAGEAPSQSGAS, the antibody binding signal is 93.8. The value for TPPSGKDKKAAAGGA was 163.

In turn, TPPSGKDKKAAAGGT returned an antibody binding signal of 190. The value for PPSGTDNKAAAGETP was 236.

In turn, NKPAAGGTPSQPGAS registered an antibody binding signal of 609. The value for GKENKAAAGEAPSQS was 107. The value for PPSGTDNKAATGEAP was 219; that for TDNKTATGGAPSPSG was 176; that for TDKKTAAGETPSPPG was 675. The value for ENKTATGGTPSQPGA was 419; that for PSGKEKKAATGGAPS was 299; that for GTDNKAATGGTPSPP was 356.

Turning to SGKDKKPATGETPSP, the antibody binding signal was determined as 692.

In turn, GKENKTATGGAPSQS yielded an antibody binding signal of 129. The value for PSGTDNKPATGGTPS was 546; that for DNKPATGETPSPPGA was 150.

For the origin of these results see the supplement of paper PMC10441789.
